# Experimental data: PMC4336329 (PLoS ONE, 2015)
# Screen size: about 310,000 compounds; about 14,000 (4.5%) showed an effect of 50% or more. The effect is printed as a negative number. The list shows a part of the results. Where a SMILES comes first, the peptide text is derived from it. [ ]: non-standard residue; d: D form. The star is where a group is joined. ξ: configuration not given here. ξPhe(4-Me) = Cc1ccc(CC(N)C(=O)O)cc1; Bz = O=C(c1ccccc1)*
# Molecular target: human ether-à-go-go-related gene (hERG) potassium channel (human, UniProt Q12809)
# Sequence (Q12809 whole entry, looked up): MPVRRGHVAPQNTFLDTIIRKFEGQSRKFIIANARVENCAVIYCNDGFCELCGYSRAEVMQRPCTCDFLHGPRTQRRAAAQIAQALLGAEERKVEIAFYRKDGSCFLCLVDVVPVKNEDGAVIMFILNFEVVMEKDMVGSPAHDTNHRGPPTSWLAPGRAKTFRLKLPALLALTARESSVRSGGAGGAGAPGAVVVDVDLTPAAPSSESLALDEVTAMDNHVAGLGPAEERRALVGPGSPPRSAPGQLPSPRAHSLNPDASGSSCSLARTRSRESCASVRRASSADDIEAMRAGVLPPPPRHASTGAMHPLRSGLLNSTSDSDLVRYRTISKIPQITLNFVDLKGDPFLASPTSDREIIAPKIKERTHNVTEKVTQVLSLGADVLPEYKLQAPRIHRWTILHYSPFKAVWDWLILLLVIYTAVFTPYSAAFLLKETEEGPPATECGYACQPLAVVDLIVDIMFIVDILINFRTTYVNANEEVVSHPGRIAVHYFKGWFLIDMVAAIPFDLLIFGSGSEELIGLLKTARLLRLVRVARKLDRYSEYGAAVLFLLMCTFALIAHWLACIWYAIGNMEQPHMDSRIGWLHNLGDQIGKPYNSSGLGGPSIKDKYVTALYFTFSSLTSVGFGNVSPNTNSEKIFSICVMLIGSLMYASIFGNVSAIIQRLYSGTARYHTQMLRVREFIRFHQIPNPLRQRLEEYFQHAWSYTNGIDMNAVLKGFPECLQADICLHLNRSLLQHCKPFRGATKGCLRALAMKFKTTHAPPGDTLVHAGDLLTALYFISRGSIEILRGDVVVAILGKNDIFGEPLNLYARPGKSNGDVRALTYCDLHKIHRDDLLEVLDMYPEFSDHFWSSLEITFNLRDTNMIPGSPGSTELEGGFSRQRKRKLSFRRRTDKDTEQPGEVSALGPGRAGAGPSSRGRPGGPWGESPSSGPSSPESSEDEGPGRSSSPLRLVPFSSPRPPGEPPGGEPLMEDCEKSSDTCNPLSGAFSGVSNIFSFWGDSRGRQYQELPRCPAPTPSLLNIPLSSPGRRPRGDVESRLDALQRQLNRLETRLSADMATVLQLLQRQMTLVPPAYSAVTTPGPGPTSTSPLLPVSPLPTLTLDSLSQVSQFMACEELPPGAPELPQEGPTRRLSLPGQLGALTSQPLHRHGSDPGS
# Experiment: primary screen, population patch clamp on CHO cells stably expressing hERG
# 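Further: peak tail current of the secondary pulse compared with the same well before compound.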
row,SMILES,"hERG current change (%, negative = inhibition) at 10uM"
1,Cc1cc(Cl)ccc1NC(=S)NCCc1ccc(S(N)(=O)=O)cc1,-16.1%
2,Cl.Nc1ccc(Cc2ccccn2)cc1,15.1%
3,CC1CCC(C(C)C)C(OC(=O)Cn2nnc3c(cnn3-c3ccccc3)c2=O)C1 (stereo not drawn),3.74%
4,COc1ccc(OC)c(C2N(c3cc(C)on3)C(=O)C3CCCN32)c1 (stereo not drawn),10.8%
5,Cc1nn(C)c(Cl)c1S(=O)(=O)N[C@@H](c1ccccc1)[C@]1(C)C[C@H]1[C@@H](C)C(=O)Nc1ccc2ccccc2c1,12.8%
6,CCCn1c(=O)c(C(=O)NCCCc2ccccc2)c(O)c2ccccc21,10.6%
7,COc1ccc(CCN2CC(C(=O)N(C)CCOc3ccccc3)CCC2=O)cc1 (stereo not drawn),-57.2%
8,COc1cc(NC(=O)CCC(=O)Nc2ccc3nc(N4CCOCC4)cc(C)c3c2)cc(OC)c1OC,-15.1%
9,CCc1cccc(C)c1NC(=S)NCc1ccc2[nH]c(C)cc2c1,-12.3%
10,Cc1ccc(CC(NC(=O)c2ccccc2)C(=O)NCC(=O)O)cc1 (stereo not drawn) (Bz-[ξPhe(4-Me)]-Gly-OH),-9.56%
11,Cc1ccc(S(=O)(=O)N(C)CC(=O)Nc2nc3ccccc3s2)cc1,-12.1%
12,COc1ccc(CCNC(=O)c2ccc(CNS(=O)(=O)c3cc(C)ccc3C)cc2)cc1OC,-25.7%
13,C=CCn1c(CCC(O)CCCCC)n[nH]c1=S (stereo not drawn),7.84%
14,C=CCn1c(CCNC(=O)c2cccs2)nnc1SCC(=O)c1ccc(Br)cc1,-67.1%
15,OCCn1c(SCCOc2ccccc2F)nc2ccccc21,-12.3%
16,Cc1onc(-c2ccccc2)c1CNC(=O)CN1C(=O)c2ccccc2C1=O,9.16%
17,Cc1cc(C)c(S(=O)(=O)N2CCN=C2c2ccccc2)c(C)c1,-2.7%
18,Cc1ccc(C)c(S(=O)(=O)NCCCn2ccnc2)c1,-16.8%
19,COc1ccc(C2N3CC4(C)CN2CC(C)(C3)C4=O)cc1OC (stereo not drawn),-3.38%
20,COc1ccc(OC)c(C(C)NC(=S)Nc2ccc(S(=O)(=O)Nc3ncccn3)cc2)c1 (stereo not drawn),4.66%
21,O=C(O)Cc1ccc(O)c(O)c1,-9.88%
22,COc1cc(/C=C/C(=O)O)cc(S(=O)(=O)Nc2ccccc2Cl)c1OC,18.8%

row,SMILES,"hERG current change (%, negative = inhibition) at 10uM"
1,Cn1c(=O)c2c(ncn2CC(=O)N2CCN(c3ccccc3)CC2)n(C)c1=O,0.318%
2,Cc1ccc(CN(c2ccc(C(=O)NCc3ccccn3)cc2)S(C)(=O)=O)cc1,-10.4%
3,CS(=O)(=O)N(CC(=O)N/N=C/c1cccc2c1OCCO2)c1ccccc1Br,2.75%
4,CC1CCCCC1NC(=O)COc1ccc(-n2cnnn2)cc1 (stereo not drawn),-18.8%
5,Cc1cc(C)cc(OCc2nc3ncc(Br)cc3[nH]2)c1.Cl,4.47%
6,O=C(O)COc1ccc(Br)cc1/C=C1/SC(=O)N(CC(=O)N2CCCC2)C1=O,3.77%
7,CCOC(=O)c1csc(N/N=C2\CCCc3ccccc32)n1,20%
8,O=C(NCCCN1CCN(CCCNC(=O)c2cc([N+](=O)[O-])ccc2Cl)CC1)c1cc([N+](=O)[O-])ccc1Cl,-25.5%
9,O=C(NCCc1ccc(Cl)cc1)C1CCCN1C(=O)NCc1ccccc1 (stereo not drawn),-11.3%
10,FC(F)(F)c1nnc2sc(-c3ccco3)nn12,12.9%
11,Cc1cc(C)cc(N(CC(=O)Nc2cccc(C)n2)S(=O)(=O)c2c(C)noc2C)c1,-25.5%
12,S=c1nc[nH]c2nc[nH]c12,18%
13,Cn1c(=O)oc2cc(S(=O)(=O)NC3CCCCCCC3)ccc21,-20.7%
14,CC(=O)Cn1c(CN2CCN(C(=O)c3ccco3)CC2)nc2c1c(=O)n(C)c(=O)n2C,16%
15,COc1ccc(CSCC(=O)Nc2ccccc2)cc1[N+](=O)[O-],-4.56%
16,Cc1ccc(NC(=O)COC(=O)c2ccc(-n3cccn3)cc2)cc1C,3.48%
17,O=C(COC(=O)c1ccccc1OCc1ccccc1Cl)NC1CC1,-1.71%
18,COC1(OC)N=C(N)C2(C#N)C(c3ccccc3)NC(C)=CC12C#N (stereo not drawn),2.16%
19,O=C(c1cnn(C(=O)COc2ccc(Cl)cc2)c1)c1ccccc1O,-2.03%
20,CCOC(=O)CNC(=O)CSc1nnc(-c2ccncc2)n1-c1ccc(Cl)cc1,-8.18%
21,COCCNC(=O)CN(c1ccc(F)cc1)S(=O)(=O)c1ccc2c(c1)OCCO2,6.36%
22,CCOC(=O)C1CCN(C(=O)CCc2c(C)nc3c(-c4ccc(F)cc4)c(C)nn3c2C)CC1,-71.1%

row,SMILES,"hERG current change (%, negative = inhibition) at 10uM"
1,Cc1cc(C)cc(NC(=S)N2CCC(c3nc4ccccc4s3)CC2)c1,4.27%
2,O=C(NCCN1CCCCC1)/C(=C/c1ccco1)NC(=O)c1ccccc1,-40.6%
3,Nc1ccc(N2CCN(C(=O)c3cccs3)CC2)cc1,-0.0153%
4,Cl.NNC(N)=O,-0.971%
5,O=C(CSCc1ccccc1)Nc1cc([N+](=O)[O-])ccc1F,6.82%
6,O=C(COC(=O)c1cc(=O)[nH]c(=O)[nH]1)Nc1cccc(S(=O)(=O)N2CCOCC2)c1,8.94%
7,CSc1cccc(CN2CCCC(C(=O)Nc3cccc(-n4cccn4)c3)C2)c1 (stereo not drawn),-28.6%
8,O=C(Nc1ccccc1)N1CCCN(c2ccc(C(F)(F)F)cn2)CC1,-33.6%
9,CCOC(=O)c1c(C)[nH]c(C)c1S(=O)(=O)Nc1ccc(CN2CCCCC2)cc1,12.4%
10,CCN(CC)CCNC(=O)Cn1nc(Cc2ccncc2)c2ccccc2c1=O,0.05%
11,Cc1ccccc1SCC(=O)OCC(=O)N(C)c1c(N)n(Cc2ccccc2)c(=O)[nH]c1=O,2.2%
12,COc1ccccc1OCC(=O)N1CCN(C(=O)COc2ccccc2OC)CC1,-1.94%
13,COCC(=O)N(Cc1ccccc1)c1ccccn1,6.35%
14,O=C(CN1C(=O)NC2(CCCCCC2)C1=O)N1CCN(c2ccccc2)CC1,-2.9%
15,COc1ccc(CCCC(=O)N/N=C/c2ccc(C)cc2)cc1,19%
16,Cc1ccc(-n2c(SCC(=O)N/N=C/c3ccc(C)s3)nnc2-c2ccccc2)cc1,-31.6%
17,CCOC(=O)[C@H](CCc1ccccc1)N[C@@H](C)C(=O)N1CCC[C@H]1C(=O)O.O=C(O)/C=C\C(=O)O,23.4%
18,O=C(Cn1cnc2c(oc3ccccc32)c1=O)N1CCCC1,12.7%
19,CC1CC1C(=O)OCC(=O)NCc1ccc(Cl)cc1 (stereo not drawn),-2.61%
20,Cc1ccccc1/C=C/c1cc[n+](C)cc1.[I-],24.8%
21,O=C(NC1CCCC1)C1C2C=CC(C2)C1C(=O)N1CCOCC1 (stereo not drawn),15.8%
22,COC(=O)c1ccc(NC(=O)NS(=O)(=O)c2ccc(C)cc2)cc1,-3.1%

row,SMILES,"hERG current change (%, negative = inhibition) at 10uM"
1,O=C(NNC(=O)c1ccccc1Br)c1ccc(SCC2CCCO2)c([N+](=O)[O-])c1 (stereo not drawn),1.07%
2,COc1ccc2c(c1)C(=O)CC(c1ccccc1F)O2 (stereo not drawn),-15.1%
3,Cc1cc(N2CCCCC2)n2ncc(-c3ccccc3)c2n1,-2.06%
4,Cc1ccc(-c2nnc(SCC(=O)CC(=O)Nc3ccccc3)n2-c2ccccc2)cc1,-7.7%
5,CCOC(=O)C1CCCN(C(=O)c2sc3nc(-c4ccc(F)cc4)cn3c2C)C1 (stereo not drawn),-72.9%
6,COc1ccccc1N1CCN(Cc2cc(=O)c(OCC(=O)NC3CCCC3)co2)CC1,-22.5%
7,CCOC(=O)N1CCN(C(=O)CN(C2CCCCC2)S(=O)(=O)c2c(C)cc(C)cc2C)CC1,-14.6%
8,N/C(Cc1ccc(Cl)cc1Cl)=N\OC(=O)Cc1cccs1,-1.08%
9,Cc1csc(=Nc2c(C)n(C)n(-c3ccccc3)c2=O)n1Cc1ccccc1,-29%
10,CCC(=O)c1c(NC)cc(C)oc1=O,-32%
11,COc1ccccc1C(=O)NNC(=O)c1ccccc1,11%
12,CCCCc1nc2cc(C(=O)N(C)C3CCOCC3)ccc2o1,4.32%
13,COc1ccc(CCNC(=O)c2ccccc2OCc2c(C)noc2C)cc1,-26.4%
14,CN(Cc1ccccc1)c1ccc(S(=O)(=O)N2CCOCC2)cn1,-5.27%
15,O=C(CCc1ccccc1)NC(=S)NCc1ccco1,1.43%
16,CCCc1[nH]c(=O)c(C#N)c2c1COC(C)(C)C2,18.2%
17,CN(c1ccc(C(=O)NCc2ccc3c(c2)OCO3)cc1)S(C)(=O)=O,-7.39%
18,CCOc1ccc(N2C(=O)C3C(c4ccccc4F)NN(C(=O)c4ccc(C)cc4)C3C2=O)cc1 (stereo not drawn),4.82%
19,O=C(NC1CCCCC1)C1CCN(S(=O)(=O)c2cccc3nsnc23)CC1,18.5%
20,Cc1ccc(SCc2ccc(C(=O)NCc3ccncc3)cc2)cc1,-8.58%
21,Cc1csc(SCC(=O)Nc2nnc(C)s2)n1,15%
